The densities may have been worked out from excess volumes.
Test: xn = mol fraction of the nth substance listed
Settings: 101 kPa

O + CC[n+]1ccn(C)c1.CS(=O)(=O)[O-]
x2 = 0
Settings	mass density [kg/m3]
288.15 K	998.3
293.15 K	997.8
313.15 K	992.9

CC[n+]1ccn(C)c1.CS(=O)(=O)[O-] + O
mass density [kg/m3]
Settings	288.15 K	293.15 K	298.15 K	303.15 K	308.15 K	313.15 K
x1 = 0.25	1197.3	–	1190	1187.8	1184.4	1180.5
x1 = 0.5	–	1224.9	1221.6	1218.2	1214.8	1211.5
x1 = 0.75	–	1235.2	1232.5	1228.5	1226.3	–
x1 = 1	–	1243.4	1240	1236.5	1233.1	1229.8

From a compilation of properties of binary mixtures (doi:10.1088/1757-899x/591/1/012044)
